Data: the supplement of paper PMC10338343
± gives the standard deviation. In all, about 5,500 sequences were measured (“pre-steady-state target cleavage rate”: median about 0.1, highest 2% from about 0.64 on). The list shows a part of the results, in another mix than the full data.

System: MIWI (PIWIL1) piRISC loaded with piRNA #2 (30 nt)
Assay: pre-steady-state target cleavage rate (min^-1); MIWI and MILI are mouse PIWI proteins and EfPiwi is from a freshwater sponge; tags in brackets are library labels; higher = faster piRNA-guided slicing of the target
Conditions: guide: piRNA #2 5'p-UUAGGUAACCCAGUAGAUCCAGAGGAAUUC; auxiliary factor: 500 nM mouse GTSF1
How it was run: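 In HEPES–potassium acetate buffer at 33 °C, […] transcribed, DNA-blocked target RNA library was mixed with 1 nM active affinity-purified piRISC carrying one synthetic guide, with or without 500 nM GTSF1 partner protein, for 0–8 or 0–960 min. Uncleaved targets were sequenced and normalised to depth and to weakly complementary targets; three trials were pooled and k3 was capped at 0.0001 min^-1. The pre-steady-state cleavage rate followed from a burst-and-steady-state fit.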

Sequence | pre-steady-state target cleavage rate
CUUAAGGACUGGAUCAACUGGCUUACCUAA | 0.0268 ± 0.022
CUAUUCGUCUGGAUCUACUGGGUUACCUAA | 0.452 ± 0.052
CUUAAGGACAGGAUCUACUGGGUUUCCUAA | 0.00883 ± 0.0056
GAAUUCCUCUGGAUCUACUGGGUUACCAUA | 0.364 ± 0.05
CUUAAGGUCUCGAUGUACUGGGUUACCUAA | 0.118 ± 0.025
GAAUUCAUCUGGAUCUACUGGGUUACCUAA | 0.37 ± 0.055
CUUUUCCUCUGGAUCUUCUGGCUUACCUAA | 0.0234 ± 0.0076
CUUAAGCUCUCGUUCUACUGGGUUACCUAA | 0.341 ± 0.034
CUUAAGGAGAGGGAUCUACUGGGUUACCUAA | 0.0161 ± 0.0038
CUAUUCCUCUGGAUCUACUCGCUUACCUAA | 0.0038 ± 0.0037
CUAUUCCUGUGGAUCUACUGGGUUACCUUA | 0.399 ± 0.048
CAAUUCCUUUGGAUCUACUGGGUUACCUAA | 0.484 ± 0.061
CUUAACCUCUGGAUCUACUGGGAUUACCUAA | 0.0523 ± 0.0087
GAAUCCUCUGGAUCUACUGGGUUACCUAA | 0.304 ± 0.065
CUAUUCCUCUGGUUCUUCUGGGUUACCUAA | 0.363 ± 0.04
CUUAUCCACUGGAACUACUGGGUUACCUAA | 0.327 ± 0.03
CUUUUCCUCUGGAUCUACUCGGUUAGCUAA | 0.0175 ± 0.0073
CUUUUCCUCUGGAUCUUCUGGGUUACCAAA | 0.175 ± 0.027
CUAUUCCACUGGAUCUACUGGGAUACCUAA | 0.393 ± 0.038
CUUAAGGACUGGAUCUACUGGGUUACCUAG [g2:g22:cont:t1G] | 0.121 ± 0.033
CUUAACCUCUGGUUCUUCUGGGUUACCUAA | 0.383 ± 0.047
CAAUUCCUGUGCAUCUACUGGGUUACCUAA | 0.384 ± 0.029
CUAUUCCAGAGGAUCUACUGGGUUACCUAA | 0.191 ± 0.035
CUUAACCUCUCGAACUACUGGGUUACCUAA | 0.321 ± 0.031

Sequence | pre-steady-state target cleavage rate
CAAUUCGUCAGGAUCUACUGGGUUACCUAA | 0.421 ± 0.065
GAAUUCCUCUGGAUACUACUGGGUUACCUAA | 0.373 ± 0.056
CUUUUGCUCUGCAUCUACUGGGUUACCUAA | 0.257 ± 0.03
CUUAACCUCUGGAUCUUCUGGCUUACCUAA | 0.0208 ± 0.0068
CUUUUCCUGUGGAUCUACUGGGUAACCUAA | 0.182 ± 0.042
CUUAUGCUCUGGAUCUACUGGGUUUCCUAA | 0.131 ± 0.021
CUUAAGGACUGGAUCUACUGGGUUGCCUAA | 0.0888 ± 0.035
CUAUACCUCUGGAUGUACUGGGUUACCUAA | 0.428 ± 0.026
CUUAACCUCUGGAUCACUGGGUUACCUAA | 0.0165 ± 0.0039
GAAUUCCUCUGGAACUACUGGGUUAGCUAA | 0.388 ± 0.049
CAAUUGCUCUGGAUCUACUGGGUUACGUAA | 0.536 ± 0.067
GAUUUCCUCAGGAUCUACUGGGUUACCUAA | 0.459 ± 0.046
CUUUUCCUCUGGAUCUACUGGGUGUACCUAA | 0.247 ± 0.03
CAAUUGCCUCUGGAUCUACUGGGUUACCUAA | 0.33 ± 0.056
CUUAACUUCUGGAUCUACUGGGUUACCUAA | 0.159 ± 0.017
CUAUUCCUCUCGGAUCUACUGGGUUACCUAA | 0.575 ± 0.089
CUUAAGGUCUGCAUCUACUGGCUUACCUAA | 0.0305 ± 0.0092
CUUUUCCUGUGGAUCUACUGGGUUUCCUAA | 0.255 ± 0.038
CUUAAGGAGUGGAUCUACUGCGUUACCUAA | 0.0756 ± 0.019
CUUAACCUCUGGAUCAAGUGGGUUACCUAA | 0.0128 ± 0.0045
CAAUUCGUCUGGAUGUACUGGGUUACCUAA | 0.0676 ± 0.036
CAAUUCCUCUGGAUCUACUGCGUUACCUAA | 0.593 ± 0.069
CUUAAGGAGACCUUCUACUGCGUUACGUAA | 0.005 ± 0.0034
CUUAAGGAGACCUAGAACUGGGUUACCAUAA | < 0.0001

Sequence | pre-steady-state target cleavage rate
CUAUUCCUCUGGAUCUACAGGGUUACCUAA | 0.236 ± 0.026
CUAUUCCUCUGGAUCUACUGGGUUGCCUAA | 0.368 ± 0.044
CUUAACCACUGGAUCUAGUGGGUUACCUAA | 0.208 ± 0.028
CUAUUCCUGUGGAUCUACUGCGUUACCUAA | 0.425 ± 0.055
CAAUUCCUCUGGAUCUACUGGGUUACCGUAA | 0.414 ± 0.06
CUUUUCCUCUGGAUCUAGUGGGUAACCUAA | 0.0559 ± 0.0098
CUUAAGCACUGGAUGUACUGGGUUACCUAA | 0.46 ± 0.043
CUUAACCUCUGGAGCUACUGGGUUACCUAA | 0.28 ± 0.029
CUUUUCCACUGGAUCUACUGGCUUACCUAA | 0.0677 ± 0.011
CUUAUCCUCUGGAUCUACUGGGUAACGUAA | 0.364 ± 0.061
CUUAUUCCUCUGGAUCUACUGGGUUACCUAA | 0.3 ± 0.043
CAAAUCCUCUGGAUCUACUGGGUUACGUAA | 0.555 ± 0.064
CUUAAGCUCUGGAUCAACUGGGUUACCAAA | 0.11 ± 0.016
CUUAAGCUCUGGAUCUUCUGGGUAACCUAA | 0.0269 ± 0.0093
CUUAACCUCUGGAUGCUACUGGGUUACCUAA | 0.188 ± 0.022
CUUAUCCUCUGGAUCUACUUGGUUACCUAA | 0.00515 ± 0.0046
CUAUUCCUCUGGAUCUACUGGGUUUACCUAA | 0.495 ± 0.058
CUUAAGCUCUGGAUCUACUGGGUUAACCUAA | 0.111 ± 0.019
CUUUUCCUCUGGAUUUACUGGGUUACCUAA | 0.55 ± 0.053
CUUAAGCUCUGGAUCUACUGGGUUACGUAA | 0.45 ± 0.043
GAAUUCCUCUGGAACUACUGGGUUACCUAA | 0.262 ± 0.037
CUUAUCCUCUGGAGCUACUGGGUUACCUAA | 0.399 ± 0.031
CUUUUCCUCUGGAUCUACUGGGUCUACCUAA | 0.463 ± 0.038
